According to PubChem BioAssay AID624202 (National Center for Advancing Translational Sciences (NCATS), 2012):
Screen size: about 380,000 compounds; about 4,000 (1.1%) were called active. Inconclusive results, whose numbers are uncertain, are shown with a selection of clear calls. The call rests on the fitted dose curve; in most records, active means well fitted activation curve with a large enough effect; inconclusive means small, poorly fitted or top-dose-only effect; inactive means no such curve, though single readings can be large or run the other way. Potencies beside an inconclusive call are fits to weak or partial responses and may not hold up.
Potency means the concentration at half of the fitted maximal effect; tags describe the fitted curve by direction and shape.

Test: qHTS Assay to Identify Small Molecule Activators of BRCA1 Expression; further: nearly all actives have a fitted effect of over 80% in size
Conditions: MCF7-BRCA1-FFLuc reporter, luminescence, 48 h; activation: at 46.1 µM (top of the series), scaled: vehicle 0%, 10 µM genistein 100% unless noted
Summary of the method: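 MCF7-BRCA1-FFLuc, 2000 cells/well; 2 h attach, 37 °C/5% CO2; compound 48 h; luciferase substrate 15 min; luminescence end-point. Norm. to genistein 10 microM max activation and DMSO; concentration-response curves fitted.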
For `CN1C2CCC1/C(=C/c1cccn1C)C(=O)/C2=C\c1cccn1C`, the Potency was “inactive”.
For `Cc1cc(NC(=O)/C=C/c2ccccc2)no1`, the Potency was inconclusive: 2.82 µM [activator, full curve, poor fit].
For `COc1ccc(/C=C/c2nc(-c3ccccc3O)n[nH]2)cc1OC`, the Potency was inconclusive: 3.16 µM [activator, full curve, poor fit].
In the case of `CCOC(=O)c1cccc(Nc2nc(C)cc(C)n2)c1`, the Potency is reported as inconclusive: 10 µM [activator, partial curve, poor fit].
In the case of `Cc1cc(=O)[nH]c2nnc(-c3ccc(Br)cc3)n12`, the Potency is reported as active: 3.98 µM.
For `COc1ccc(-c2csc(Nc3ccccc3)[n+]2Cc2ccccc2)cc1`, the Potency was inconclusive: 15.8 µM [activator, single point].
In the case of `Cc1cc(=O)oc2cc(OCC(=O)N3CCN(C(=O)C4COc5ccccc5O4)CC3)ccc12` (stereo not drawn), the Potency is reported as “inactive”.
With `Cc1ccc(Nc2nnc(SCc3ccccc3)s2)cc1` the Potency was inconclusive: 15.8 µM [activator, partial curve, poor fit].
For `Cn1c(N)c(S(=O)(=O)c2ccc(Br)cc2)c2nc3ccccc3nc21`, the Potency was “inactive”.
With `C/C(=N/NC(=O)c1cccs1)c1ccco1` the Potency was active: 12.6 µM.
With `CS(=O)(=O)c1ccc2nc(NC(=O)C3COc4ccccc4O3)sc2c1` (stereo not drawn) the Potency was inconclusive: 20 µM [activator, single point].
In the case of `COc1ccccc1-c1nc(-c2cccc(C)c2)no1`, the Potency is reported as “inactive”.
With `Cc1ccc(Nc2nc(COC(=O)COc3ccc(C=O)cc3)cs2)cc1` the Potency was inconclusive: 10 µM [activator, partial curve, poor fit].
In the case of `Cc1cccc(-c2nnc(SCc3ccccc3)o2)c1`, the Potency is reported as inconclusive: 14.1 µM [activator, partial curve, poor fit].
For `CCOC(=O)Nc1nc2ccccc2s1`, the Potency was active: 5.62 µM.
With `COc1ccc(C(=O)NCCn2ccc3ccccc32)cc1` the Potency was inconclusive: 1.26 µM [activator, full curve, poor fit].
For `CC(/C=C/c1ccccc1)=N\NC(N)=S`, the Potency was “inactive”.
With `O=C(NC1CC1)c1sc2cc(F)ccc2c1Cl` the Potency was inconclusive: 10 µM [activator, partial curve, poor fit].
In the case of `O=C(CCN1CCc2ccccc2C1)c1ccc2c(c1)OCCO2`, the Potency is reported as “inactive”.
With `COc1ccccc1N1CCN(c2nc(C)nc3c2oc2ccccc23)CC1` the Potency was “inactive”.
With `Cn1cc(Br)c(C(=O)N2CCc3ccccc32)n1` the Potency was inconclusive: 20 µM [activator, single point].
For `O=C(O)c1cc(N/N=C/c2ccc(OCc3ccccc3)cc2)ccc1Cl`, the Potency was inconclusive: 1.12 µM [activator, full curve, poor fit].
With `CN(C)C(=O)c1ccc(-c2cc(C(F)(F)F)nn2C)s1` the Potency was inconclusive: 11.2 µM [activator, partial curve, poor fit].
In the case of `CC(=O)c1c(C)[nH]c(C(=O)NC2CCSc3ccccc32)c1C` (stereo not drawn), the Potency is reported as “inactive”.
With `O=C(Nc1ccccc1)O/N=C/c1ccc(F)cc1` the Potency was inconclusive: 2.82 µM [activator, full curve, poor fit].
For `O=C(Nc1ccc(-c2nc3ccccc3[nH]2)cc1)c1ccco1`, the Potency was inconclusive: 1.58 µM [activator, partial curve, poor fit].
For `Cc1cccc(C)c1-n1c(SCC(=O)N2CC(=O)Nc3ccccc32)nc2ccccc2c1=O`, the Potency was “inactive”.
With `O=C(Nc1ccccc1)c1cc2ccccc2s1` the Potency was inconclusive: 17.8 µM [activator, single point].
In the case of `Nc1nnc(CC(=O)N/N=C/c2cccc(OCCOc3ccccc3)c2)s1`, the Potency is reported as inconclusive: 1.58 µM [activator, full curve, poor fit].
For `N#CCSc1nc2cc(C(=O)N3CCC(C(N)=O)CC3)ccc2c2nc3ccccc3n12`, the Potency was “inactive”.
For `O=c1[nH]c(=O)n(C2OC(CO)C(O)C2O)c2c1CCCC2` (stereo not drawn), the Potency was “inactive”.
With `COc1ccc(C(=O)Nc2ccc3c(c2)nc(CCNC(=O)c2ccco2)n3C)cc1` the Potency was inconclusive: 10 µM [activator, partial curve, poor fit].
For `Cc1ccc(C2CC(C(F)(F)F)n3nc(C(=O)NCCN4CCOCC4)cc3N2)cc1` (stereo not drawn), the Potency was “inactive”.
For `O=C(COC(=O)c1ccc(Sc2ccccc2)c([N+](=O)[O-])c1)NC1CCS(=O)(=O)C1` (stereo not drawn), the Potency was inconclusive: 35.5 µM [activator, single point].
With `Cc1cccc(C(=O)Nc2ccc(O)cc2)c1` the Potency was inconclusive: 11.2 µM [activator, partial curve, poor fit].
For `O=C(NC1CCCCC1)c1cc(-c2ccc(O)cc2)on1`, the Potency was inconclusive: 2.51 µM [activator, full curve, poor fit].
For `COc1cccc(-c2c(C(=O)N/N=C/c3ccncc3)nnn2-c2nonc2N)c1`, the Potency was “inactive”.
For `CCOC(=O)/C(C#N)=C\c1cc(C)n(-c2ccccc2)c1C`, the Potency was inconclusive: 2 µM [activator, partial curve, poor fit].
In the case of `Cc1ccc(N2C(=O)c3ccccc3C2Nc2ccc(S(=O)(=O)N3CCOCC3)cc2)nc1` (stereo not drawn), the Potency is reported as active: 14.1 µM.
With `CCOC(=O)Cc1csc(NC(=O)c2cnc3sc(C)cn3c2=O)n1` the Potency was active: 11.2 µM.
For `Cc1cnc(NC(=O)C2CCC(C(C)(C)C)CC2)s1` (stereo not drawn), the Potency was inconclusive: 12.6 µM [activator, partial curve, poor fit].
For `Cn1c(CN2CCCCC2)nc2cc(NC(=O)c3ccccc3)ccc21`, the Potency was “inactive”.
For `N#Cc1c(N2CCSCC2)nsc1-c1ccccc1Cl`, the Potency was active: 11.2 µM.
With `O=C(Nc1cc(F)ccc1F)c1ccc2c(=O)n3c(nc2c1)CCC3` the Potency was inconclusive: 17.8 µM [activator, partial curve, poor fit].
With `Cc1cc(C(=O)Nc2ccc3c(c2)OCCO3)co1` the Potency was inconclusive: 2 µM [activator, partial curve, poor fit].
With `Cc1cc(NC(=O)COc2ccccc2C#N)no1` the Potency was inconclusive: 7.08 µM [activator, full curve, poor fit].
For `Cc1ccc(C(=O)Nc2ccc(N3CCOCC3)cc2)cc1`, the Potency was active: 8.91 µM.
With `CC(=O)Nc1ccc(-c2ccnc3c2CC(C(=O)Nc2ccc(Cl)c(C(F)(F)F)c2)O3)cc1` (stereo not drawn) the Potency was “inactive”.
